# Laboratory results published in PubChem BioAssay AID504332 (National Center for Advancing Translational Sciences (NCATS), 2011).
# The campaign covered roughly 350,000 compounds. About 31,000 (8.9%) were called active. Inconclusive results, whose numbers are uncertain, are shown with a selection of clear calls. Calls follow the shape of the dose curve; as a rule, active = well fitted inhibition curve with a large enough effect; inconclusive = small, poorly fitted or top-dose-only effect; inactive = no such curve, though single readings can be large or run the other way. Where the call is inconclusive, the potency comes from a doubtful curve fit. A structure can be active in one record and inactive in another.
# Target: Histone-lysine N-methyltransferase EHMT2 (Homo sapiens) (UniProt Q96KQ7)
# Assay: qHTS Assay for Inhibitors of Histone Lysine Methyltransferase G9a; also: nearly all actives have a fitted effect of over 75% in size
# Conditions: G9a H3K9 monomethylation, AlphaScreen, 2 h; activity, negative = inhibition: at 59 µM (top of the series) unless noted
# Method in brief: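 Readings reflect AlphaScreen signal from monomethyl-H3K9 antibody detection. HMT at 20 nM; substrate b-H3K9 500 nM; cofactor SAM 20 uM; 2 h RT reaction; compounds tested as titrations in qHTS with 15 min preincubation.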
# % is scaled to controls: 0 for no effect and ±100 for the full control effect; potency is read from the fitted curve at half-maximal effect; tags tell the direction and shape of the fitted curve.
# UniProt Q96KQ7, sequence (Q96KQ7 whole entry, looked up): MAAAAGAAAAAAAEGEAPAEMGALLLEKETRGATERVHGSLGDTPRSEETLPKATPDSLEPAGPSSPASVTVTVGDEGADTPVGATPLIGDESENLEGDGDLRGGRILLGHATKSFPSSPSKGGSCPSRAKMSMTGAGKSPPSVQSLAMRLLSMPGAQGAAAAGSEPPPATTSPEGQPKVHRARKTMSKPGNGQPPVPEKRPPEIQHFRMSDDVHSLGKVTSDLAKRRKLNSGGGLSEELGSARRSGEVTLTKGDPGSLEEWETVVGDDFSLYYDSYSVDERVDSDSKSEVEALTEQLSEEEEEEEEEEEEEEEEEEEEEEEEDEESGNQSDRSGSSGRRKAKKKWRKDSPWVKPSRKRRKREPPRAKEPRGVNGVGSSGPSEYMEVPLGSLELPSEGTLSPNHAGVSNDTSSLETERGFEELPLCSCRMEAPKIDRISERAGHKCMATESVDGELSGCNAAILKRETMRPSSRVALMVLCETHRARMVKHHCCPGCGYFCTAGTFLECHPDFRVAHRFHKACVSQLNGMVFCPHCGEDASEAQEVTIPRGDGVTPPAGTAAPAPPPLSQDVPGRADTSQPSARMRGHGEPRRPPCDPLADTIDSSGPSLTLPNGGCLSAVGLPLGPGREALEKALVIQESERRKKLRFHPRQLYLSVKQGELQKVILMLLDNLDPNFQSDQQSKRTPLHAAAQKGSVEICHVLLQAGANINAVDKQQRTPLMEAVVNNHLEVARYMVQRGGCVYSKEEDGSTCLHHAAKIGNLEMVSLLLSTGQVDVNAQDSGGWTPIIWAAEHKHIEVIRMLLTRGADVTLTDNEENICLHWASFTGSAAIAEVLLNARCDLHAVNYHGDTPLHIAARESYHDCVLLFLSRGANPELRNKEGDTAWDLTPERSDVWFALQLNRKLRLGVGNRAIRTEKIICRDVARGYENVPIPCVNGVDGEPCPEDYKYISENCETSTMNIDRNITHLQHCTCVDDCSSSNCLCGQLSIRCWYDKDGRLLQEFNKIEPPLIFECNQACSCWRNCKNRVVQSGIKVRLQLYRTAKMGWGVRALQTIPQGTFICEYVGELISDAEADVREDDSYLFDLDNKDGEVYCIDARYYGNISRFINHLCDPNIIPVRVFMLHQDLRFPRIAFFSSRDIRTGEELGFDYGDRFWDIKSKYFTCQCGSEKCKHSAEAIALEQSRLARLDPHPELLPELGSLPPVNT
SMILES,Potency,"activity, negative = inhibition"
CCN(CC)CCN(C(=O)C1CCCCC1)c1nc2cc3c(cc2s1)OCO3,"inconclusive: 89.1 µM [inhibitor, single point]",–
COc1ccc(OC)c(-c2nnc3n(CCc4ccccc4)c(=O)c4ccccc4n23)c1,"inconclusive: 31.6 µM [inhibitor, single point]",–
Cc1cccc(C(=O)Nc2ccc3nc(SCC(=O)N4CCc5ccccc54)sc3c2)c1,inactive,–
CCn1c(=O)n(-c2ccc3c(c2)OCO3)c2nc(-c3cc(OC)ccc3OC)nc(C(N)=O)c21,inactive,–
COc1ccccc1NS(=O)(=O)/C=C/c1ccccc1,inactive,–
Cc1ccc(NC(=O)N(Cc2ccco2)C(C)c2ccco2)cc1C (stereo not given),–,inconclusive: -66.2% [inhibitor]
COc1cc(C(=O)Nc2ccc(C(F)(F)F)cc2)ccc1OCC(=O)N1CCOCC1,"inconclusive: 89.1 µM [inhibitor, partial curve, poor fit]",–
COc1cc(NC(=O)c2nc(-c3ccc(Cl)cc3)n3c2CCCCC3)cc(OC)c1OC,"inconclusive: 5.62 µM [inhibitor, partial curve, poor fit]",–
CN(C)C(=O)/C(=C\c1ccc(-c2cccc([N+](=O)[O-])c2)o1)NC(=O)c1ccccc1,"inconclusive: 39.8 µM [inhibitor, partial curve]",–
CC1CCc2c(sc(N)c2C(=O)OC(C)C)C1 (stereo not given),–,inconclusive: -88.5% [inhibitor]
N=C1S/C(=C\c2ccco2)C(=O)N1c1nccs1,active: 35.5 µM,–
Cc1cccc(N=C2NC(=O)S/C2=C\c2ccco2)c1,active: 22.4 µM,–
COc1ccc(NC(=O)CC2C(=O)N(Cc3cccs3)C(=S)N2C(C)C)cc1 (stereo not given),"inconclusive: 44.7 µM [inhibitor, partial curve]",–
COc1ccccc1C1CC(c2c(-c3ccccc3)c3cc(Cl)ccc3[nH]c2=O)=NN1S(C)(=O)=O (stereo not given),"inconclusive: 56.2 µM [inhibitor, partial curve]",–
C(=C\c1ccccc1)/C=N/n1cnnc1,inactive,–
CCCCOC(=O)CCc1c(C)[nH]c(=O)c(C#N)c1C,inactive,–
COc1ccc(CNC(=O)c2ccc(NC(=O)N3CCSc4ncccc43)cc2)c(OC)c1,"inconclusive: 3.98 µM [inhibitor, partial curve, poor fit]",–
Cc1ccc(S(=O)(=O)N2CCN(CC(=O)N(CC(C)C)c3c(N)n(CC(C)C)c(=O)[nH]c3=O)CC2)c(C)c1,"inconclusive: 89.1 µM [inhibitor, single point]",–
Cc1cccc(-c2nc(CS(=O)CC(=O)NC3CCCC3)c(C)o2)c1 (stereo not given),"inconclusive: 89.1 µM [inhibitor, single point]",–
CCOC(=O)C1=C(NC(=S)NC(=O)c2ccccc2)c2ccccc2CC1(C)CC (stereo not given),"inconclusive: 1.41 µM [inhibitor, full curve]",–
CC(NC(=O)/C=C/c1ccco1)c1nc2ccccc2n1Cc1cccc(Cl)c1 (stereo not given),"inconclusive: 28.2 µM [inhibitor, single point]",–
CCOc1[nH]n(-c2ccccc2)c(=O)c1C=Nc1ccc(F)cc1F,"inconclusive: 44.7 µM [inhibitor, partial curve, poor fit]",–
CCOC(=O)c1c(S(=O)(=O)N2CCN(c3ccc(F)cc3)CC2)c(C)n(C)c1C,"inconclusive: 89.1 µM [inhibitor, partial curve, poor fit]",–

SMILES,Potency,"activity, negative = inhibition"
O=C(CC(n1cncn1)C(Cl)(Cl)Cl)c1ccc([N+](=O)[O-])cc1 (stereo not given),active: 10 µM,–
Cc1ccc(-n2nc(-c3cccs3)cc2C(=O)NCC2CCCO2)c(C)c1 (stereo not given),"inconclusive: 44.7 µM [inhibitor, partial curve, poor fit]",–
COc1ccc2c(c1)c(=O)oc1cc(OC(C(=O)O)c3ccccc3)ccc12 (stereo not given),inactive,–
O=C1/C(=C/c2ccco2)N=C(N2CCCCC2)N1c1ccccc1,"inconclusive: 25.1 µM [inhibitor, single point]",–
Cc1ccc(C)c(Nc2nn3c(=O)c4ccc(C(=O)N(C)Cc5ccccc5)cc4nc3s2)c1,inactive,–
CCOc1ccccc1C1C(C(=O)OC)=C(N)OC2=C1C(=O)CCC2 (stereo not given),inactive,–
Cc1ccc(C)c(OCCCC(=O)NC2CCCCC2)c1,inactive,–
CCCCCC(=O)NC(=S)NC1C2CC3CC(C2)CC1C3 (stereo not given),active: 44.7 µM,–
CCOC(=O)c1sc2ncn(CC(=O)Nc3cc(C)cc(C)c3)c(=O)c2c1C,inactive,–
COc1ccccc1C(=O)NCC(c1cccs1)N1CCc2ccccc21 (stereo not given),active: 50.1 µM,–
CN(C)/C=C1\C(=O)NN=C1C(F)(F)F,"inconclusive: 89.1 µM [inhibitor, single point]",–
CC(NC(=O)Cc1ccc(F)cc1)c1ccc(F)cc1 (stereo not given),"inconclusive: 7.94 µM [inhibitor, full curve]",–
CC(C)(C)NCC(O)COc1cccc2[nH]c(=O)[nH]c12 (stereo not given),active: 1.12 µM,–
Cc1cc(C)cc(N(CCC#N)C(=O)COC(=O)CNC(=O)c2sc3ccccc3c2Cl)c1,"inconclusive: 50.1 µM [inhibitor, partial curve]",–
COCCOC(=O)C1=C(C)Nc2nc(C)nn2C1c1ccc(F)cc1 (stereo not given),"inconclusive: 3.55 µM [inhibitor, partial curve, poor fit]",–
COc1ccc(N2CCN(C(=O)CCNC(=O)c3ccc(Br)cc3)CC2)cc1,"inconclusive: 89.1 µM [inhibitor, single point]",–
NS(=O)(=O)c1cccc(NC(=O)COC(=O)Cc2n[nH]c(=O)c3ccccc23)c1,"inconclusive: 1.12 µM [inhibitor, single point]",–
Cc1ccnc(NS(=O)(=O)c2ccc(NC(=O)c3cc(-c4ccccc4)nc4ccccc34)cc2)n1,"inconclusive: 25.1 µM [inhibitor, single point]",–
COc1ccc(NC(=S)Nc2ccccn2)cc1,active: 39.8 µM,–
Cc1nn(-c2cc(C(F)(F)F)ccc2Cl)c2nc(C(Cl)(Cl)Cl)[nH]c(=O)c12,inactive,–
CN(Cc1ccon1)C(=O)CC1C(=O)NCCN1CC(C)(C)C (stereo not given),active: 44.7 µM,–
Cn1c(=O)c(-c2cc(F)cc(F)c2)nc2cnc(N3CCNCC3)nc21,–,inactive: -3.99% [at 0.501 µM]
